Consider 28 molecules from patent US7592316B2, “Peptides as NS3-serine protease inhibitors of hepatitis C virus” (Schering Corporation, priority 2000, dated 2009).

SMILES strings stand for the structures. *1 amine or outer side, *2 acyl side, *3 side chain or, on linkers, in order; H or OH if unused. Where a SMILES comes first, the peptide text is derived from it. [ ]: non-standard residue; d: D form. The star is where a group is joined. ξ: configuration not given here. Isobutyloxycarbonyl = CC(C)COC(=O)*; ξ2Nal = NC(Cc1ccc2ccccc2c1)C(=O)O; Hyp = O=C(O)[C@@H]1C[C@@H](O)CN1; X2 = CCCC(N[*:1])C(=O)C(=O)[*:2]; ξhPhe = NC(CCc1ccccc1)C(=O)O; ξAad = NC(CCCC(=O)O)C(=O)O; ξCha = NC(CC1CCCCC1)C(=O)O; ξChg = NC(C(=O)O)C1CCCCC1; ξPhg = NC(C(=O)O)c1ccccc1; ξTle = CC(C)(C)C(N)C(=O)O; Carboxymethyl = O=C(O)C*; ξF = NC(Cc1ccccc1)C(=O)O; ξL = CC(C)CC(N)C(=O)O; ξhSer = NC(CCO)C(=O)O; ξK = NCCCCC(N)C(=O)O; ξV = CC(C)C(N)C(=O)O; Bn = c1ccc(C*)cc1; ξS = NC(CO)C(=O)O

This test has as its target HCV NS3/NS4A protease (strain 1a) (Hepatitis C virus genotype 1a, UniProt P27958). Kind of test: biochemical. Particulars: Compounds prepared by Solid Phase Synthesis, Table 3; read-out: Ki* CLASS.
With `CCCC(NC(=O)[C@@H]1CCCN1C(=O)C(NC(=O)OCC(C)C)C(C)C)C(=O)C(=O)NCC(=O)NC(CC1CCCCC1)C(N)=O` (stereo partly shown) (Isobutyloxycarbonyl-[ξV]P[X2]G[ξCha]-NH2), the Ki was over 1000 nM.
Next, `CCCC(NC(=O)[C@@H]1CCCN1C(=O)C(NC(=O)OCC(C)C)C(C)C)C(=O)C(=O)NCC(=O)NC(C(N)=O)C1CCCCC1` (stereo partly shown) (Isobutyloxycarbonyl-[ξV]P[X2]G[ξChg]-NH2): over 1000 nM.
The result for `CCCC(NC(=O)[C@@H]1CCCN1C(=O)C(NC(=O)OCC(C)C)C(C)C)C(=O)C(=O)NCC(=O)NC(Cc1ccccc1)C(N)=O` (stereo partly shown) (Isobutyloxycarbonyl-[ξV]P[X2]G[ξF]-NH2) reads over 1000 nM.
Take `CCCC(NC(=O)[C@@H]1CCCN1C(=O)C(NC(=O)OCC(C)C)C(C)C)C(=O)C(=O)NCC(=O)NC(CCCCN)C(N)=O` (stereo partly shown) (Isobutyloxycarbonyl-[ξV]P[X2]G[ξK]-NH2): the inhibitory constant (Ki) was over 1000 nM.
Turning to `CCCC(NC(=O)[C@@H]1CCCN1C(=O)C(NC(=O)OCC(C)C)C(C)C)C(=O)C(=O)NCC(=O)NC(CC(C)C)C(N)=O` (stereo partly shown) (Isobutyloxycarbonyl-[ξV]P[X2]G[ξL]-NH2), the Ki was over 1000 nM.
For the molecule `CCCC(NC(=O)[C@@H]1CCCN1C(=O)C(NC(=O)OCC(C)C)C(C)C)C(=O)C(=O)NCC(=O)NC(C(N)=O)c1ccccc1` (stereo partly shown) (Isobutyloxycarbonyl-[ξV]P[X2]G[ξPhg]-NH2), the Ki was over 1000 nM.
Next, `CCCC(NC(=O)[C@@H]1CCCN1C(=O)C(NC(=O)OCC(C)C)C(C)C)C(=O)C(=O)NCC(=O)NC(COCc1ccccc1)C(N)=O` (stereo partly shown) (Isobutyloxycarbonyl-[ξV]P[X2]G[ξS](Bn)-NH2): over 1000 nM; `CCCC(NC(=O)[C@@H]1CCCN1C(=O)C(NC(=O)OCC(C)C)C(C)C)C(=O)C(=O)NCC(=O)NC(C(N)=O)C(C)(C)C` (stereo partly shown) (Isobutyloxycarbonyl-[ξV]P[X2]G[ξTle]-NH2): over 1000 nM; `CCCC(NC(=O)[C@@H]1CCCN1C(=O)C(NC(=O)OCC(C)C)C(C)C)C(=O)C(=O)NCC(=O)NC(CCc1ccccc1)C(N)=O` (stereo partly shown) (Isobutyloxycarbonyl-[ξV]P[X2]G[ξhPhe]-NH2): over 1000 nM.
Next, `CCCC(NC(=O)[C@@H]1CCCN1C(=O)C(NC(=O)OCC(C)C)C(C)C)C(=O)C(=O)NCC(=O)NC(CCO)C(N)=O` (stereo partly shown) (Isobutyloxycarbonyl-[ξV]P[X2]G[ξhSer]-NH2): over 1000 nM; `CCCC(NC(=O)[C@@H]1C[C@@H](OCc2ccccc2)CN1C(=O)C(NC(=O)OCC(C)C)C(C)C)C(=O)C(=O)NCC(=O)NC(Cc1ccc2ccccc2c1)C(N)=O` (stereo partly shown) (Isobutyloxycarbonyl-[ξV][Hyp](Bn)[X2]G[ξ2Nal]-NH2): over 1000 nM.
Next, `CCCC(NC(=O)[C@@H]1C[C@@H](OCc2ccccc2)CN1C(=O)C(NC(=O)OCC(C)C)C(C)C)C(=O)C(=O)NCC(=O)NC(CCCC(=O)O)C(N)=O` (stereo partly shown) (Isobutyloxycarbonyl-[ξV][Hyp](Bn)[X2]G[ξAad]-NH2): over 1000 nM; `CCCC(NC(=O)[C@@H]1C[C@@H](OCc2ccccc2)CN1C(=O)C(NC(=O)OCC(C)C)C(C)C)C(=O)C(=O)NCC(=O)NC(CC1CCCCC1)C(N)=O` (stereo partly shown) (Isobutyloxycarbonyl-[ξV][Hyp](Bn)[X2]G[ξCha]-NH2): over 1000 nM; `CCCC(NC(=O)[C@@H]1C[C@@H](OCc2ccccc2)CN1C(=O)C(NC(=O)OCC(C)C)C(C)C)C(=O)C(=O)NCC(=O)NC(C(N)=O)C1CCCCC1` (stereo partly shown) (Isobutyloxycarbonyl-[ξV][Hyp](Bn)[X2]G[ξChg]-NH2): 101 to 1000 nM.
For the molecule `CCCC(NC(=O)[C@@H]1C[C@@H](OCc2ccccc2)CN1C(=O)C(NC(=O)OCC(C)C)C(C)C)C(=O)C(=O)NCC(=O)NC(Cc1ccccc1)C(N)=O` (stereo partly shown) (Isobutyloxycarbonyl-[ξV][Hyp](Bn)[X2]G[ξF]-NH2), the Ki was over 1000 nM.
The result for `CCCC(NC(=O)[C@@H]1C[C@@H](OCc2ccccc2)CN1C(=O)C(NC(=O)OCC(C)C)C(C)C)C(=O)C(=O)NCC(=O)NC(CCCCN)C(N)=O` (stereo partly shown) (Isobutyloxycarbonyl-[ξV][Hyp](Bn)[X2]G[ξK]-NH2) reads over 1000 nM; that for `CCCC(NC(=O)[C@@H]1C[C@@H](OCc2ccccc2)CN1C(=O)C(NC(=O)OCC(C)C)C(C)C)C(=O)C(=O)NCC(=O)NC(CC(C)C)C(N)=O` (stereo partly shown) (Isobutyloxycarbonyl-[ξV][Hyp](Bn)[X2]G[ξL]-NH2), over 1000 nM.
Next, `CCCC(NC(=O)[C@@H]1C[C@@H](OCc2ccccc2)CN1C(=O)C(NC(=O)OCC(C)C)C(C)C)C(=O)C(=O)NCC(=O)NC(C(N)=O)c1ccccc1` (stereo partly shown) (Isobutyloxycarbonyl-[ξV][Hyp](Bn)[X2]G[ξPhg]-NH2): 101 to 1000 nM.
The result for `CCCC(NC(=O)[C@@H]1C[C@@H](OCc2ccccc2)CN1C(=O)C(NC(=O)OCC(C)C)C(C)C)C(=O)C(=O)NCC(=O)NC(COCc1ccccc1)C(N)=O` (stereo partly shown) (Isobutyloxycarbonyl-[ξV][Hyp](Bn)[X2]G[ξS](Bn)-NH2) reads over 1000 nM; that for `CCCC(NC(=O)[C@@H]1C[C@@H](OCc2ccccc2)CN1C(=O)C(NC(=O)OCC(C)C)C(C)C)C(=O)C(=O)NCC(=O)NC(C(N)=O)C(C)(C)C` (stereo partly shown) (Isobutyloxycarbonyl-[ξV][Hyp](Bn)[X2]G[ξTle]-NH2), over 1000 nM.
Consider `CCCC(NC(=O)[C@@H]1C[C@@H](OCc2ccccc2)CN1C(=O)C(NC(=O)OCC(C)C)C(C)C)C(=O)C(=O)NCC(=O)NC(CCc1ccccc1)C(N)=O` (stereo partly shown) (Isobutyloxycarbonyl-[ξV][Hyp](Bn)[X2]G[ξhPhe]-NH2), for which the inhibitory constant (Ki) is over 1000 nM.
Take `CCCC(NC(=O)[C@@H]1C[C@@H](OCc2ccccc2)CN1C(=O)C(NC(=O)OCC(C)C)C(C)C)C(=O)C(=O)NCC(=O)NC(CCO)C(N)=O` (stereo partly shown) (Isobutyloxycarbonyl-[ξV][Hyp](Bn)[X2]G[ξhSer]-NH2): the inhibition constant (Ki) was over 1000 nM.
Next, `CCCC(NC(=O)[C@@H]1C[C@@H](OCC(=O)O)CN1C(=O)C(NC(=O)OCC(C)C)C(C)C)C(=O)C(=O)NCC(=O)NC(Cc1ccc2ccccc2c1)C(N)=O` (stereo partly shown) (Isobutyloxycarbonyl-[ξV][Hyp](Carboxymethyl)[X2]G[ξ2Nal]-NH2): over 1000 nM; `CCCC(NC(=O)[C@@H]1C[C@@H](OCC(=O)O)CN1C(=O)C(NC(=O)OCC(C)C)C(C)C)C(=O)C(=O)NCC(=O)NC(CCCC(=O)O)C(N)=O` (stereo partly shown) (Isobutyloxycarbonyl-[ξV][Hyp](Carboxymethyl)[X2]G[ξAad]-NH2): over 1000 nM.
As to `CCCC(NC(=O)[C@@H]1C[C@@H](OCC(=O)O)CN1C(=O)C(NC(=O)OCC(C)C)C(C)C)C(=O)C(=O)NCC(=O)NC(CC1CCCCC1)C(N)=O` (stereo partly shown) (Isobutyloxycarbonyl-[ξV][Hyp](Carboxymethyl)[X2]G[ξCha]-NH2), the Ki is over 1000 nM.
Next, `CCCC(NC(=O)[C@@H]1C[C@@H](OCC(=O)O)CN1C(=O)C(NC(=O)OCC(C)C)C(C)C)C(=O)C(=O)NCC(=O)NC(C(N)=O)C1CCCCC1` (stereo partly shown) (Isobutyloxycarbonyl-[ξV][Hyp](Carboxymethyl)[X2]G[ξChg]-NH2): over 1000 nM.
The result for `CCCC(NC(=O)[C@@H]1C[C@@H](OCC(=O)O)CN1C(=O)C(NC(=O)OCC(C)C)C(C)C)C(=O)C(=O)NCC(=O)NC(Cc1ccccc1)C(N)=O` (stereo partly shown) (Isobutyloxycarbonyl-[ξV][Hyp](Carboxymethyl)[X2]G[ξF]-NH2) reads over 1000 nM; that for `CCCC(NC(=O)[C@@H]1C[C@@H](OCC(=O)O)CN1C(=O)C(NC(=O)OCC(C)C)C(C)C)C(=O)C(=O)NCC(=O)NC(CCCCN)C(N)=O` (stereo partly shown) (Isobutyloxycarbonyl-[ξV][Hyp](Carboxymethyl)[X2]G[ξK]-NH2), over 1000 nM.

The Ki is a measure of affinity in units of concentration, obtained from inhibition or displacement.
